Measured values taken from PubChem BioAssay AID1508624 (National Center for Advancing Translational Sciences (NCATS), 2021).
The whole screen tested about 48,000 compounds, of which about 120 (0.25%) were called active. About 4% were inconclusive and are not listed. Calls come from the whole dose curve; as a rule, active = well fitted activation curve with a large enough effect; inconclusive = small, poorly fitted or top-dose-only effect, or another doubt; inactive = no such curve, though single readings can be large or run the other way. This is one part of the list.

Assay: Primary qHTS for Identification of Small Molecule Activators of Huntingtin-Antisense Promoter Activity; note: nearly all actives have a fitted effect of over 55% in size
Settings: HEK293 HTT-AS promoter firefly luciferase reporter, 24 h; series mostly up to 57.5 µM; activity change, positive = activation: at the top concentration
Procedure, shortened: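 HEK293 luciferase promoter-reporter cells (2,500/well) plated 24 h, then compounds added at up to 57.5 uM final for 24 h at 37 °C. Firefly luminescence by Dual-Glo, normalized to vehicle (0%) and zero RLU (-100%).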

Activity change, positive = activation, inactive:
COc1ccc(-c2cc(C(F)(F)F)nc(SCC(=O)N3CCCCC3)n2)cc1 -3.41%
CCCC(=O)c1cc2c(cc1NC(=O)c1ccccc1F)OCCO2 -13.3%
CCCCOc1ccc(NC(=O)c2cc3c(n(-c4ccc(Cl)cc4)c2=O)CCCC3=O)cc1 -4.98%
Cc1ccc(CNC(=O)CCCn2c(=O)c3ccccc3n(Cc3ccccc3Cl)c2=O)cc1 -14.7%
COc1cccc(CNC(=O)C2CCCN(S(=O)(=O)c3ccc4c(ccn4C)c3)C2)c1OC (stereo unspecified) -17.4%
O=C(Cn1c(=O)n(CCCS(=O)(=O)C2CCCCC2)c(=O)c2ccccc21)Nc1ccccc1F -4.99%
Cc1cc(C(=O)Nc2cccc(C(F)(F)F)c2)c2c(C)nn(-c3cccc(F)c3)c2n1 -84.8%
Cc1nn2c3c(cnc2c1-c1ccc(F)cc1)C(=O)CC(c1ccccc1)C3 (stereo unspecified) -3.31%
CC(=O)Nc1ccc(NC(=O)CC(C)n2ccc(C)n2)cc1 (stereo unspecified) -8.69%
O=S(=O)(NCCc1csc2nc(-c3ccc(F)cc3)nn12)c1ccc2c(c1)OCCO2 -38%
Cc1cc(C)c(-c2csc(-c3cc4ccccc4oc3=O)n2)cc1C 0.652%
CCCN1CCN(CCNC(=O)Nc2cc(Cl)c(OC)cc2OC)CC1 -11.5%
Cc1cccc(N2C(=O)C(CC(=O)Nc3ccccc3)N(C3CCCCC3)C2=O)c1 (stereo unspecified) 3.24%
COc1cccc(C(=O)Nc2nc3nc(C)c(Cc4ccccc4)c(=O)n3[nH]2)c1 -6.68%
Cn1c(=O)c2[nH]c(Br)nc2n(C)c1=O -6.57%
CCOC(=O)c1c(C)[nH]c(C)c1S(=O)(=O)N(C)CC(=O)N1CCN(c2cccc(C)c2C)CC1 -18.2%
Cc1nn(C)c2c1c(-c1ccccc1)cc(=O)n2Cc1ccc(Br)cc1F -3.1%
CCOC(=O)c1c(C)oc2nc(C)nc(NCCCN3CCN(c4ccccc4OC)CC3)c12 -16%
CCOc1ccc(C(=O)Nc2c(C)nc(Nc3ccccc3)nc2Nc2ccccc2)cc1OCC -22.2%
COc1ccc(C(=O)Cn2c(=O)n3nc(CCn4nc(C)cc4C)nc3c3cc(OC)c(OC)cc32)cc1 -3.07%
COc1ccc(COc2cc3oc(=O)c4cc(C(C)O)ccc4c3cc2OC)cc1 (stereo unspecified) -24.9%
COc1ccc(S(=O)(=O)Nc2c(C)n(C)n(-c3ccccc3)c2=O)cc1Br 5.39%
COc1ccc(CCNc2nc(-c3ccccc3OC)cc(C(F)(F)F)n2)cc1OC -44.9%
COc1ccccc1N1CCN(C(=O)CSc2nc(C)cc(=O)[nH]2)CC1 -9.38%
CC(C)Nc1cc(N2CCN(C3CCCCC3)CC2)c2noc3c2c1C(=O)c1ccccc1-3 -13%
CCOc1ccc(CNC(=O)C(C)n2ncn3cccc3c2=O)cc1 (stereo unspecified) -10.4%
CCOC(=O)c1[nH]c(C)c(CCC(=O)Nc2ccc(C)cc2Cl)c1C -8.11%
O=C(c1ccc(Br)cc1)N1CCC(c2nc3ccccc3s2)CC1 -11.2%
CCOc1ccccc1CNC(=O)C1=C(C)C(=O)OC12CCN(C(C)=O)CC2 -7.67%
CN1CCC(N(Cc2cccs2)c2ccccc2)CC1 -20.8%
O=C(NCCc1ccccc1)c1c2c(nc3ccccc13)C(=O)N(C1CCCCC1)C2 4.38%
Cc1oc(-c2cccc(Cl)c2)nc1CN1CCC(C(=O)NCc2ccc(F)cc2)CC1 -6.55%
C=CCOc1cc(Cl)ccc1C(=O)NCCN(CC)CC -4.96%
O=C(COCCOCCOCC(=O)Nc1c(I)cc(I)c(C(=O)O)c1I)Nc1c(I)cc(I)c(C(=O)O)c1I -2.18%
CCCN1C(=O)c2[nH]nc(-c3ccc(F)cc3)c2C1c1ccc(O)c(OCC)c1 (stereo unspecified) -17.7%
COc1cccc(NC(=O)Cc2ccc(NC(=O)N3CCCCc4ccccc43)cc2)c1 -21.7%
Cc1cc2c(n1-c1ccc(C(=O)NCc3cccc(Br)c3)cc1)CCC(C)C2 (stereo unspecified) -11.8%
CCOC(=O)c1c(-c2ccccc2)oc2ccc(OCc3ccc(C)cc3)cc12 -19.2%
Cc1ccccc1Cn1c(=O)n(CCCCC(=O)NCc2ccc3c(c2)OCO3)c(=O)c2ccccc21 -42.1%
Cc1ccc(N2C(=O)CSC23C(=O)Nc2ccccc23)cc1F (stereo unspecified) -7.48%
Cc1cccc(-c2nc3c4ccccc4n(CC(=O)Nc4cc(F)ccc4F)c(=O)n3n2)c1 9.68%
O=C(COc1ccccc1F)Nc1ccc2nc(SCC(=O)N3CCOCC3)sc2c1 -12.6%
O=S(=O)(c1ccccc1)c1nc(-c2ccc(F)cc2)oc1NCc1ccccc1 10.5%
COc1ccc(CNC(=O)CCCc2nnc3n(C(C)C)c(=O)c4sccc4n23)cc1 -13.4%
CC(C)(Oc1ccc(Cl)cc1)C(=O)OCCCOC(=O)C(C)(C)Oc1ccc(Cl)cc1 -6.62%
O=C(NCCc1ccccc1)c1ccc2c(c1)nc1n2CCOC1 -50.7%
Cc1ccc(S(=O)(=O)Nc2cc(Cl)c3oc4c(c3c2)CCCC4)cc1 -21.6%
CCOC(=O)c1cccc(NC(=O)CSc2ncc3c(n2)-c2ccc(Cl)cc2N(Cc2ccccc2)S3(=O)=O)c1 -10.1%
COc1ccccc1CNC(=O)CCS(=O)(=O)c1ccc2c(c1)oc(=O)n2C 7.1% [at 11.5 µM, percent change from vehicle, -100% = no light]
CCOc1ccc(CNC(=O)CSc2c3c(nc4cc(Cl)ccc24)CCCC3)cc1 -33.6%
Cc1c(C)n(Cc2ccccc2)c2ccc(C(=O)N3CCN(c4ccccc4)CC3)cc12 -1.71%
CCN(CC)S(=O)(=O)c1ccc2c(c1)N(CC(=O)Nc1c(C)cccc1C)C(=O)C1CCCN21 (stereo unspecified) -9.24%
COc1ccc(C(=O)NC(c2ccccc2Cl)c2cc(Cl)c3cccnc3c2O)cc1 (stereo unspecified) -40.6%
CCOC(=O)c1oc2c(c1C)-c1nn(Cc3cccc(Cl)c3)cc1CC2 -27.8%
Cc1ccc(OCC(=O)NCC(=O)OCc2cc(=O)n3nc(C(C)C)sc3n2)cc1 -9.75%
CC(C)Oc1ccc(C(=O)N(Cc2ccc(N(C)C)cc2)Cc2ccco2)cc1 -25.2%
COc1cc(NC(=O)CN2CCCN(Cc3cccc(F)c3)S2(=O)=O)cc(OC)c1 -8.53%
CCOC(=O)c1c(C)oc2nc(C)nc(NCCc3ccc(C)cc3)c12 -14.2%
CCCc1cc(N2CCN(c3ccccc3F)CC2)n2cnnc2n1 -20.4%
CC1=C(C(=O)N2CCCCC2)C(c2ccc(Cl)cc2)n2c(nc3ccccc32)N1 (stereo unspecified) -8.88%
Cc1ccc(CN2C(=O)c3ccccc3Sc3ccc(C(=O)N4CCOCC4)cc32)cc1 -31.1%
CCOc1ccc(NC(=O)CSc2oc(-c3ccco3)nc2S(=O)(=O)c2ccccc2)cc1 -7.84%
COc1ccc(-c2nc(C)c(CCNC(=O)c3ccc(C(F)(F)F)cc3)s2)cc1OC -0.371%
Cc1ccc(NC(=O)c2oc3ccc(S(=O)(=O)N(C)C4CCCCC4)cc3c2C)c(C)c1 -14.9%
CCCNC(=O)c1cc2n(n1)CCCN(Cc1ccc(C)cc1)C2=O 0.176%
CCOc1ccccc1NC(=O)CSc1ncc2c(n1)-c1ccccc1N(CC)S2(=O)=O -18.3%
COc1ccc(CNCc2ccc(C(=O)O)s2)cc1 -13.2%
O=C(NCCc1ccc(Cl)cc1)c1ccc(Nc2nc3ccccc3n3nnnc23)cc1 3.89%
Cc1cccc(NC(=O)C(=O)NCCCN2CCOCC2)c1 -2.46%
COc1ccc(NC(=O)c2nc(SCc3ccc(F)cc3)ncc2Cl)cc1 -16.2%
CCOc1ccc(NC(=O)c2sc(-n3nc(C)c(CCC(C)C)c3C)nc2C)cc1 7.16%
CCC(C)Nc1nc2c(c(=O)[nH]c(=O)n2C)n1Cc1ccc(F)cc1 (stereo unspecified) -4.46%
Cc1ccc(-n2ncc3c(NCCc4ccc(S(N)(=O)=O)cc4)ncnc32)cc1 0%
CCCCOC(=O)CSc1ncnc2sc3c(c12)CCC(C)C3 (stereo unspecified) 9.62%
OCC(O)CN1CCN(c2ccccc2)CC1 (stereo unspecified) -14.5%
C=Cc1ccc(Cn2c(C(=O)O)c(CNCCc3ccco3)c3ccc(C)cc32)cc1 -36.5%
COC(=O)c1cc2sccc2n1Cc1nc(-c2cccc(Cl)c2)oc1C 21.1%
CC1=C(c2ccc(C)cc2)S(=O)(=O)NC1=NCc1ccccc1Cl 2.61%
CC(=O)O[C@H]1C[C@@H]2CC[C@H]3[C@H]4C[C@H]([N+]5(C)CCCCC5)[C@@H](OC(C)=O)[C@@]4(C)CC[C@@H]3[C@@]2(C)C[C@H]1[N+]1(C)CCCCC1 -7.25%
CCN(C(=O)Cn1c(=O)oc2cc(S(=O)(=O)N3CCCCCC3)ccc21)c1cccc(C)c1 -8.05%
Cc1cccc(OC(=O)c2snnc2C)c1 -3.69%
Cc1cccc(C)c1Nc1c(-c2ccccn2)nc2ccc(Cl)cn12 -19.1%
COc1ccc(-c2nc(CSCC(=O)N3CCN(c4ccccc4F)CC3)c(C)o2)cc1 -66.4%
Cn1cc(S(=O)(=O)N2CCCCCC2)cc1C(=O)NCc1ccc(F)cc1 -27.2%
CCc1ccccc1NC(=O)COCc1cc(-c2ccco2)on1 4.29%
COc1ccccc1S(=O)(=O)Cc1ccc(C(=O)N2CCN(c3cc(Cl)ccc3C)CC2)o1 -48.4%
COC(=O)c1c(-c2ccc(Cl)cc2)noc1N1CCN(c2ccccc2OC)CC1 -34.4%
CCOc1ccc2c(c1)c(=O)c(C(=O)c1ccc(CC)cc1)cn2CC(=O)Nc1cccc(Cl)c1 -16.9%
Cc1cc(C)c(Cn2c(=O)n(CCC(=O)NCc3ccc4c(c3)OCO4)c(=O)c3ccccc32)c(C)c1 -4.36%
CCOc1ccc(OCC)c(NC(=O)C2CCN(S(=O)(=O)c3ccc4c(c3)CC(C)N4C(C)=O)CC2)c1 (stereo unspecified) -21.9%
Cc1ccc2occ(CC(=O)N(Cc3ccc(Cl)cc3)Cc3ccco3)c2c1 5.66%
Cc1ccc(N2C(=O)[C@@H]3CSC(c4ccc(Cl)cc4)N3C2=O)cc1 (stereo partly specified) -21.3%
CCCCn1c(CCCNC(=O)c2cccc(C)c2)nc2ccccc21 -33.1%
COCCNC(=O)Cn1nc(-c2ccc(C)cc2)c2ccccc2c1=O -4.68%
Cc1cccc(NC(=O)c2ccc(CN3CC(=O)N4CCCCC4C3=O)cc2)c1C (stereo unspecified) -14.9%
Cc1nc2cc(-c3cccc(F)c3)nn2c(C)c1CCC(=O)Nc1ccccc1C(N)=O -71.3%
